According to article PMC5681660, “Reduced hepatitis B and D viral entry using clinically applied drugs as novel inhibitors of the bile acid transporter NTCP” (Scientific Reports, 2017):
Counter-ions that a name gives are not always drawn. Like-named read-outs stand apart in the source and are kept apart here.

How the values were obtained:
[1] = biological target: T1, human NTCP (Homo sapiens, UniProt Q14973); test: Screening taurocholate uptake assay (96-well, [14C]taurocholate, 10 µM drug); settings: for remaining activity at 10 µM: 10 min, read-out: %NTCP activity
T1 sequence (Q14973 1-349): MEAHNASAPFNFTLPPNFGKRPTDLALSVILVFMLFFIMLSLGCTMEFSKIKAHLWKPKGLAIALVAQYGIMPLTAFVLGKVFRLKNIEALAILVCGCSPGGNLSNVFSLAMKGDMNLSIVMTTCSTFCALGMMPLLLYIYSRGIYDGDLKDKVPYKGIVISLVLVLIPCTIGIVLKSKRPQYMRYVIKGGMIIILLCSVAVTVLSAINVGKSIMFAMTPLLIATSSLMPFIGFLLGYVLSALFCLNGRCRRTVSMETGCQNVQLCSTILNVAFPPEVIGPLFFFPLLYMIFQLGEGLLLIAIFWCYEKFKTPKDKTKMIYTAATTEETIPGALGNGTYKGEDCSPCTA

[2] = biological target: T1, human NTCP; test: Screening fluorescent competitive Myrcludex B-FITC binding assay (96-well, 10 µM drug)
[3] = screen, 10 µM drug, Myrcludex B-FITC binding
[4] = Prestwick library screen, 10 µM drug, Myrcludex B-FITC binding

SMILES	remaining activity at 10 µM [1] [%]	remaining activity at 10 µM ([2]; 0.5 h, read-out: %NTCP binding) [%]	also measured
CCCCOc1ccc(C(=O)CCN2CCCCC2)cc1 [Dyclonine hydrochloride]	29.4	81.3	
CC(C)(O/N=C(\C(=O)N[C@@H]1C(=O)N2C(C(=O)[O-])=C(C[n+]3ccccc3)CS[C@H]12)c1csc(N)n1)C(=O)O [Ceftazidime pentahydrate]	35.8	75.7	
Clc1cc(Cl)c(OCC#CI)cc1Cl [Haloprogin]	94.7	72	
CSc1ccc2c(c1)C(N1CCN(C)CC1)Cc1ccccc1S2.O=C(O)/C=C\C(=O)O (centres unmarked) [Methiothepin maleate]			%NTCP activity ([1]; screen, 10 µM drug, [14C]taurocholate uptake): 130.345%; %NTCP binding [2, 3]: 57.715%
CCN(CC)CCNc1ccc(CO)c2sc3ccccc3c(=O)c12 [Hycanthone]	66	80.1	
COC(c1ccccc1)(c1ccccc1)[C@H](Oc1nc(C)cc(C)n1)C(=O)O [Ambrisentan]	74.3	108	
C[C@]12C[C@H]3S[C@H]3C[C@@H]1CC[C@@H]1[C@@H]2CC[C@]2(C)[C@@H](O)CC[C@@H]12 [Epitiostanol]	80.5	113	
C[C@@]12N[C@@H](Cc3ccccc31)c1ccccc12.O=C(O)/C=C\C(=O)O [(-)-MK 801 hydrogen maleate]			%NTCP activity [1]: 58.5177%; %NTCP binding ([2]; Prestwick library screen, Myrcludex B-FITC binding, 10 µM drug): 84.7031%
CCCCNC(=O)NS(=O)(=O)c1ccc(C)cc1 [Tolbutamide]	112	63.4	
Cc1ccc(Cl)c(Nc2ccccc2C(=O)[O-])c1Cl.O.[Na+]			%NTCP activity [1]: 66.0562%; %NTCP binding [2, 3]: 37.4523%
Cc1cc(C(C)(C)C)cc(C)c1CC1=NCCN1 [Xylometazoline hydrochloride]	107		remaining activity at 10 µM ([2]; 0.5 h, read-out: %NTCP binding, screen, 10 µM drug, Myrcludex B-FITC binding): 69.2%
CC(C)(C)C(=O)OCOC(=O)[C@@H]1N2C(=O)[C@@H](/N=C/N3CCCCCC3)[C@H]2SC1(C)C [Pivmecillinam hydrochloride]	117	85.9	
COc1ccccc1N1CCN(CCCNc2cc(=O)n(C)c(=O)n2C)CC1 [Urapidil hydrochloride]	61	120	
CCCCC(CC)CN1CN(CC(CC)CCCC)CC(C)(N)C1 (centres unmarked) [Hexetidine]	114	71.5	
CN1[C@@H]2CC[C@H]1C[C@@H](OC1c3ccccc3CCc3ccccc31)C2.O=C(O)CC(O)(CC(=O)O)C(=O)O [Deptropine citrate]			%NTCP activity [1]: 115.378%; %NTCP binding [2, 4]: 87.3815%
CO[C@@H]1[C@@H](O[C@@H]2O[C@H](C)[C@@H](O[C@H]3C[C@@](C)(O)[C@@H](OC(=O)CC(C)C)[C@H](C)O3)[C@H](N(C)C)[C@H]2O)[C@@H](CC=O)C[C@@H](C)[C@@H](O)/C=C/C=C/C[C@@H](C)OC(=O)C[C@H]1OC(C)=O [Josamycin]	97.2	87	
CN[C@@H]1[C@@H](O)[C@@H](O[C@@H]2[C@@H](O)[C@H](O[C@H]3OC(CN)=CC[C@H]3N)[C@@H](N)C[C@H]2N)OC[C@]1(C)O [Sisomicin sulfate]	31.8	80.2	
CCSc1ccc2c(c1)N(CCCN1CCN(C)CC1)c1ccccc1S2.O=C(O)CC(O)C(=O)O.O=C(O)CC(O)C(=O)O [Thiethylperazine dimalate]			%NTCP activity ([1]; Prestwick library screen, 10 µM drug, [14C]taurocholate uptake): 122.125%; %NTCP binding [2, 4]: 117.903%
CC1(C)O[C@@H]2C[C@H]3[C@@H]4CCC5=CC(=O)C=C[C@]5(C)[C@H]4[C@@H](O)C[C@]3(C)[C@]2(C(=O)CO)O1 [Desonide]	112	58.9	
CC(Cc1cccc(C(F)(F)F)c1)NCCOC(=O)c1ccccc1 (centres unmarked) [Benfluorex]	77.2	71.1	
CC1(C)O[C@@H]2C[C@H]3[C@@H]4C[C@H](F)C5=CC(=O)C=C[C@]5(C)[C@H]4[C@@H](O)C[C@]3(C)[C@]2(C(=O)CO)O1 [Flunisolide]	102	68.8	
CN1CCOC(c2ccccc2)c2ccccc2C1 (centres unmarked) [Nefopam hydrochloride]	138	53.7	
CC1(C)O[C@@H]2C[C@H]3[C@@H]4CCC5=CC(=O)CC[C@]5(C)[C@@]4(F)[C@@H](O)C[C@]3(C)[C@]2(C(=O)CCl)O1 [Halcinonide]	82.2	80.8	
CC(=O)/N=c1/sc(S(N)(=O)=O)nn1C [Methazolamide]	104	98.8	
CC(=O)[C@H]1CC[C@H]2[C@@H]3C[C@H](C)C4=CC(=O)CC[C@]4(C)[C@H]3[C@@H](O)C[C@]12C [Medrysone]	77.4	107	
